In PubChem BioAssay AID1347073 (National Center for Advancing Translational Sciences (NCATS), 2019):
The campaign covered roughly 45,000 compounds. About 200 (0.44%) were called active. About 7% were inconclusive and are not listed. The call rests on the fitted dose curve; in most records, active means well fitted activation curve with a large enough effect; inconclusive means small, poorly fitted or top-dose-only effect; inactive means no such curve, though single readings can be large or run the other way. Some of the results follow.

Test: qHTS of TDP-43 Inhibitors: NCGC Sytravon Library Screen; further: 0% is about no effect; nearly all actives have a fitted effect of over 55% in size
Settings: yeast TDP-43 toxicity rescue, BacTiter-Glo growth, 24 h; series mostly up to 46.1 µM; growth rescue (activation): at the top concentration
Outline: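 TDP-43-expressing yeast, pregrown in raffinose, seeded at OD600 0.02 in galactose medium with compound for 24 hr at 30 deg C. Growth read by BacTiter-Glo luminescence, so rescue of toxicity appears as activation.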
With `CC(OC(=O)C1CC1)C(=O)Nc1cc(Cl)cc(Cl)c1` (centres undefined) the “growth rescue (activation)” value was inactive: 19%. With `O=C(NNc1cc(C(F)(F)F)ccc1Cl)c1ccc(=O)[nH]c1` the “growth rescue (activation)” value was inactive: 5.24%. In the case of `O=C(CC(=O)NC1CCCCC1)N/N=C/c1ccccc1[N+](=O)[O-]`, the “growth rescue (activation)” value is reported as inactive: -2.84%. In the case of `CC(=O)NC(Cc1ccc(C(C)C)cc1)C(=O)NC1CCN(C(=O)c2cccc(C)c2)CC1` (centres undefined), the “growth rescue (activation)” value is reported as inactive: 14.4%. With `COc1ccc(C(=O)C[n+]2ccc(C)cc2)cc1` the “growth rescue (activation)” value was inactive: 25.9%. For `Cc1ccc(N2CC(C(=O)N3CCN(c4ccccn4)CC3)CC2=O)cc1` (centres undefined), the “growth rescue (activation)” value was inactive: -7.13%. For `COc1cc(/C=C/C(=O)O)cc(S(=O)(=O)Nc2ccccc2C(=O)NCc2ccco2)c1OC`, the “growth rescue (activation)” value was inactive: -16.7%. For `COc1cc(NC(=NS(=O)(=O)c2ccccc2)c2ccccc2)ncn1`, the “growth rescue (activation)” value was inactive: 6.51%. With `CCc1ccc(S(=O)(=O)NCCc2cn3ccccc3n2)s1` the “growth rescue (activation)” value was inactive: -13.1%. For `Cc1ccccc1NC(=O)Cn1c(=O)n(CCCCCC(=O)NCc2ccc3c(c2)OCO3)c(=O)c2sccc21`, the “growth rescue (activation)” value was inactive: 4.35%. For `COc1ccccc1C(=O)NCC(=O)N/N=C/c1cn[nH]c1-c1ccccc1`, the “growth rescue (activation)” value was inactive: 8.69%. In the case of `Cc1ccc(S(=O)(=O)NCCCCCC(=O)NC(C)(C)CO)cc1`, the “growth rescue (activation)” value is reported as inactive: 3.49%. In the case of `CC(=O)Nc1ccc(SCC(=O)O)cc1`, the “growth rescue (activation)” value is reported as inactive: -1.38%. For `O=S(=O)(Nc1nc2ccccc2nc1Cl)c1ccccc1C(F)(F)F`, the “growth rescue (activation)” value was inactive: 7.54%. With `O=C(NCC(c1cccnc1)N1CCN(c2ccc(F)cc2)CC1)c1ccc(F)cc1` (centres undefined) the “growth rescue (activation)” value was inactive: -29.2%. With `O=C(/C=C/c1cccc([N+](=O)[O-])c1)n1cnc2ccccc21` the “growth rescue (activation)” value was inactive: -11.3%. With `CC(/C=C1\SC(=S)N(C(C(=O)O)C(C)C)C1=O)=C\c1ccccc1` (centres undefined) the “growth rescue (activation)” value was inactive: -91.1%. For `COc1cc(/C=N/Nc2ccc3ccccc3c2)ccc1OC(=O)c1ccco1`, the “growth rescue (activation)” value was inactive: 9.97%. For `O=C(N/C(=C\c1cccs1)C(=O)N1CCOCC1)c1cccs1`, the “growth rescue (activation)” value was inactive: -4.76%. With `O=C(CSc1ccc([N+](=O)[O-])cn1)Nc1ccc2c(c1)OCO2` the “growth rescue (activation)” value was inactive: 22.7%. In the case of `CCn1c(=N)n(CC(=O)c2cccc([N+](=O)[O-])c2)c2ccccc21`, the “growth rescue (activation)” value is reported as inactive: 18.9%. With `CC(C)CN(C(=O)CSc1nc(N)cc(N)n1)C1CCS(=O)(=O)C1` (centres undefined) the “growth rescue (activation)” value was inactive: 1.57%. For `COc1cccc(Nc2nc(C(N)CO)cs2)n1` (centres undefined), the “growth rescue (activation)” value was inactive: 0.635%. In the case of `O=C(NCc1ccccn1)C(=O)Nc1nc(-c2ccccc2)cs1`, the “growth rescue (activation)” value is reported as inactive: 12.2%. With `Cc1ccc(S(=O)(=O)N2CCN(CC(=O)N/N=C\c3ccc(Cl)c([N+](=O)[O-])c3)CC2)cc1` the “growth rescue (activation)” value was inactive: 9.81%. For `CCCC(C)NC(=O)c1sc2nc3n(c(=O)c2c1C)CCC3` (centres undefined), the “growth rescue (activation)” value was inactive: 9.98%. In the case of `Cc1cc(C)n(-c2nc(NCCN(C)C)c3c4c(sc3n2)CCCC4)n1`, the “growth rescue (activation)” value is reported as inactive: -16.2%. With `Cc1cccc(-n2nc3c([n+]2[O-])CCc2nonc2-3)c1C` the “growth rescue (activation)” value was inactive: 2.15%. In the case of `OC1CCC(NC(=S)Nc2ccc(SC(F)F)cc2)CC1` (centres undefined), the “growth rescue (activation)” value is reported as inactive: 8.57%. With `O=C(Nc1ccccc1Cl)c1sccc1-c1ccccc1` the “growth rescue (activation)” value was inactive: 19.8%. In the case of `c1ccc(Cc2cc[n+](Cc3ccccn3)cc2)cc1`, the “growth rescue (activation)” value is reported as inactive: 1.67%. With `O=C(Nc1c(C(=O)N2CCOCC2)cnn1-c1ccccc1)c1cccc(F)c1` the “growth rescue (activation)” value was inactive: 11.1%. For `CCOc1ccccc1NC(=O)NCc1ccccc1`, the “growth rescue (activation)” value was inactive: 19.1%. With `Fc1ccc(Nc2nc(NCc3ccccc3)nc3ccsc23)cc1` the “growth rescue (activation)” value was inactive: 13%. With `COc1cc2c(cc1OC)C(c1ccc(C(F)(F)F)cc1)CC(=O)N2` (centres undefined) the “growth rescue (activation)” value was inactive: 5.28%. In the case of `CCOc1ccccc1N(C)S(=O)(=O)c1ccc2[nH]cc(C(=O)N(CCOC)CCOC)c(=O)c2c1`, the “growth rescue (activation)” value is reported as inactive: 2.66%. With `O=C(O)/C(=C/c1ccc(Cl)c([N+](=O)[O-])c1)c1ccc(S(=O)(=O)N2CCCCC2)s1` the “growth rescue (activation)” value was inactive: 11%. In the case of `CCOc1ccccc1N(CC)C(=O)c1ccc2c(=O)n3c(nc2c1)CCCCC3`, the “growth rescue (activation)” value is reported as inactive: 15.6%. With `COc1ccc(NC(=S)N(CCCN2CCOCC2)C(C)c2cc3cccc(OC)c3o2)cc1` (centres undefined) the “growth rescue (activation)” value was inactive: 14.4%. In the case of `N=c1occ(C(=O)c2cc(F)ccc2O)cc1C(=O)NC1CCCCC1`, the “growth rescue (activation)” value is reported as inactive: -1.37%. For `Cc1ccc(NC(=O)COC(=O)C2C3CC4OC(=O)C2C4C3)cc1` (centres undefined), the “growth rescue (activation)” value was inactive: -3.18%. In the case of `Cc1ccc(S(=O)(=O)N(C)CC(=O)Nc2cccnc2)cc1`, the “growth rescue (activation)” value is reported as inactive: 2.98%. In the case of `O=C(COC(=O)c1cccc(Cl)c1)NCc1ccccc1`, the “growth rescue (activation)” value is reported as inactive: 6.34%. With `CC(C)CNC(=O)COC(=O)c1ccc(Cl)c(S(=O)(=O)N2CCc3ccccc32)c1` the “growth rescue (activation)” value was inactive: 5.1%. For `O=c1[nH]c(SCCN2CCOCC2)nc(O)c1-c1ccccc1`, the “growth rescue (activation)” value was inactive: -3.02%. For `CNc1cccc(-c2c(OC)cccc2OC)n1`, the “growth rescue (activation)” value was inactive: 5.95%. For `O=c1c2[nH]c3ccc(Cl)cc3c2ncn1CCN1CCCCC1`, the “growth rescue (activation)” value was inactive: 26.3%. With `Cn1c(Cc2ccc3c(c2)OCO3)nnc1SCC(=O)NC(C)(C)C` the “growth rescue (activation)” value was inactive: 10%. In the case of `O=C(CCC1CCCC1)NNC(=O)c1cc2ccccc2cc1O`, the “growth rescue (activation)” value is reported as inactive: 9.54%. For `S=C(NCc1ccc(Cl)cc1)NC1CCN(Cc2ccccc2)CC1`, the “growth rescue (activation)” value was inactive: -4.29%. In the case of `O=C(NCC1CCCO1)c1ccc(N2C(=O)C3CCCCC3C2=O)cc1` (centres undefined), the “growth rescue (activation)” value is reported as inactive: 17.7%. For `CCOC(=O)N1CCN(C(=O)C2CCCN(S(=O)(=O)c3c(C)cc(C)cc3C)C2)CC1` (centres undefined), the “growth rescue (activation)” value was inactive: 21.1%. In the case of `Cc1ccc(F)cc1C(=O)N1CCC1(C)C(=O)O` (centres undefined), the “growth rescue (activation)” value is reported as inactive: 8.71%. For `Cc1ccc(C)c2[nH]c(=O)c(CN(CC3CCCO3)C(=S)NCc3ccco3)cc12` (centres undefined), the “growth rescue (activation)” value was inactive: 12.9%. For `CN(C)S(=O)(=O)c1cccc(C(=O)Nc2ccccc2N2CCCCC2)c1`, the “growth rescue (activation)” value was inactive: 27.6%. In the case of `Cc1cc(C(=O)N/N=C/c2ccc([N+](=O)[O-])s2)n[nH]1`, the “growth rescue (activation)” value is reported as inactive: 12.4%. In the case of `CCCN1CCc2c(sc3nc(SCC)n(-c4ccc(OC)cc4)c(=O)c23)C1`, the “growth rescue (activation)” value is reported as inactive: 6.72%. For `COc1cc2[nH]c(C(=O)NCCc3ccccc3)cc2c(OC)c1OC`, the “growth rescue (activation)” value was inactive: 29.6%. For `O=C(O)CC(NS(=O)(=O)c1c(F)cc(F)cc1Br)c1ccccc1Cl` (centres undefined), the “growth rescue (activation)” value was inactive: 31%. In the case of `CCc1nc2ccc(C(=O)NCc3cccs3)cn2c1N(CCC(C)C)CCN(C)C`, the “growth rescue (activation)” value is reported as inactive: -7.43%. In the case of `CCOCC(=O)Nc1cc([N+](=O)[O-])ccc1OC`, the “growth rescue (activation)” value is reported as inactive: 10.6%. With `CC1CCC2(CC1)NC(=O)N(Cc1cc(=O)n3ccsc3n1)C2=O` (centres undefined) the “growth rescue (activation)” value was inactive: 2.97%. In the case of `O=C(NNc1nc2ccccc2o1)c1ccccc1`, the “growth rescue (activation)” value is reported as inactive: 4.28%. With `COc1ccc(C(OCC(O)CNC(C)c2ccccc2)c2ccc(OC)cc2)cc1` (centres undefined) the “growth rescue (activation)” value was inactive: -2.16%. In the case of `COC(=O)c1c(NC(=O)c2cccc(OC)c2)sc2c1CCC(C(C)(C)C)C2` (centres undefined), the “growth rescue (activation)” value is reported as inactive: -6.94%. In the case of `CCOC(=O)N1CCN(C(=O)CSCc2ccccc2)CC1`, the “growth rescue (activation)” value is reported as inactive: 22%. In the case of `N#CNC1=NCN(CCc2ccccc2)CN1`, the “growth rescue (activation)” value is reported as inactive: 2.13%. For `CC(O)(c1ccccc1)c1nc(-c2ccncc2)cs1` (centres undefined), the “growth rescue (activation)” value was inactive: -7.76%. With `CC1(C(=O)NS(=O)(=O)C2CC2)CCCN(C(=O)/C=C/c2ccccc2)C1` (centres undefined) the “growth rescue (activation)” value was inactive: -0.344%.
